{"sequences": {"note": "The chains behind the UniProt entries cited, without tags or fusion partners.", "UniProt P03496": "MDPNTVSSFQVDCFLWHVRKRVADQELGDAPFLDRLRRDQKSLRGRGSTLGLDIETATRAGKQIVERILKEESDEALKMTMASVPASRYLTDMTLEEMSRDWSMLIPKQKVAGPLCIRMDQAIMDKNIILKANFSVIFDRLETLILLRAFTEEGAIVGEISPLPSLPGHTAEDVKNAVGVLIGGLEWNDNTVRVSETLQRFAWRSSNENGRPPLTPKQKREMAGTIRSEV"}, "source": "paper PMC3566120", "molecules": {"B1": {"name": "Myc-tagged hGBP1 mutant K51A (protein, UniProt P32455 1-592)", "chain": "MASEIHMTGPMCLIENTNGRLMANPEALKILSAITQPMVVVAIVGLYRTGASYLMNKLAGKKKGFSLGSTVQSHTKGIWMWCVPHPKKPGHILVLLDTEGLGDVEKGDNQNDSWIFALAVLLSSTFVYNSIGTINQQAMDQLYYVTELTHRIRSKSSPDENENEVEDSADFVSFFPDFVWTLRDFSLDLEADGQPLTPDEYLTYSLKLKKGTSQKDETFNLPRLCIRKFFPKKKCFVFDRPVHRRKLAQLEKLQDEELDPEFVQQVADFCSYIFSNSKTKTLSGGIQVNGPRLESLVLTYVNAISSGDLPCMENAVLALAQIENSAAVQKAIAHYEQQMGQKVQLPTETLQELLDLHRDSEREAIEVFIRSSFKDVDHLFQKELAAQLEKKRDDFCKQNQEASSDRCSALLQVIFSPLEEEVKAGIYSKPGGYRLFVQKLQDLKKKYYEEPRKGIQAEEILQTYLKSKESMTDAILQTDQTLTEKEKEIEVERVKAESAQASAKMLQEMQRKNEQMMEQKERSYQEHLKQLTEKMENDRVQLLKEQERTLALKLQEQEQLLKEGFQKESRIMKNEIQDLQTKMRRRKACTIS"}}, "key": {"[1]": {"target": "T1, Myc-tagged hGBP1 mutant K51A (human) (UniProt P32455)", "T1 sequence": "B1 chain", "experiment": "co-IP"}, "[2]": {"target": "T2, hGBP1 mutant K51A fused to the N-terminal fragment of venus fluorescent protein (human) (UniProt P32455)", "T2 sequence": "B1 chain", "experiment": "split reporter"}, "[3]": {"target": "Flag-tagged wild-type NS1 (nonstructural protein 1) of influenza A virus PR8 (influenza A virus A/Puerto-Rico/8/34 (H1N1; PR8)) (UniProt P03496)", "experiment": "co-IP"}}, "note": "These are yes or no findings as the source states them, for the method shown. Binding seen in cells or lysates may run through a third protein. Sequences can lack the tags named with a protein."}
{"molecule": "Flag-tagged wild-type NS1 (nonstructural protein 1) of influenza A virus PR8 (from UniProt P03496 1-230)", "values": [{"measurement": "binding", "setting": "[1]", "value": "no binding"}]}
{"molecule": "NS1 fused to the C-terminal fragment of venus fluorescent protein (from UniProt P03496 1-230)", "values": [{"measurement": "binding", "setting": "[2]", "value": "no binding"}]}
{"molecule": "B1", "values": [{"measurement": "binding", "setting": "[3]", "value": "no binding"}]}
